Toxic doses and inconclusive results are not listed. A number of entries come with more than one value. They are shown here; other results are not. An entry can have further records. The values listed for one entry are repeated measurements (runs, samples, wells, individuals or studies). Marks in square brackets tell the records apart. The letters are not those of the source and start again with each entry.

For this assay, the system named is P388 leukemia ip, CD2F1 mice, survival T/C. Briefly: NCI In Vivo Anticancer Drug Screen. Data for tumor model P388 Leukemia (intraperitoneal) in CD2F1 (CDF1) mice. Conditions: endpoint: median survival time, higher = longer survival.

Regarding `C[CH2][Sn]([CH2]C)([N]=C=S)[N]=C=S`, the T/C (dose: 12.5 mg/kg/injection, schedule: Q01DX009 (ip), vehicle: saline) is on record as 93 % of control, 102 % of control, 155 % of control and the T/C (dose: 25.0 mg/kg/injection, schedule: Q01DX009 (ip), vehicle: saline) was 101 % of control, 102 % of control, 156 % of control. `CC[C@](O)(C(=O)O)c1cc2n(c(=O)c1CO)Cc1cc3ccccc3nc1-2`: the T/C is, setting by setting: (dose: 16.2 mg/kg/injection, schedule: Q04DX002 (ip), vehicle: saline) 114 % of control and 175 % of control; (dose: 27.0 mg/kg/injection, schedule: Q04DX002 (ip), vehicle: saline) 111 % of control and 176 % of control; (dose: 75.0 mg/kg/injection, schedule: Q04DX002 (ip), vehicle: saline) 92 % of control and 160 % of control. On to `Nc1cccc(S(=O)(=O)Nc2c(N)[nH]c(=S)[nH]c2=O)c1`, for which the T/C (dose: 240.0 mg/kg/injection, schedule: Q01DX005 (ip), vehicle: Klucel (hydroxypropylcellulose) (HPC)) is recorded as 98 % of control, 100 % of control, 166 % of control. As to `Nc1nncs1`, the T/C (dose: 60.0 mg/kg/injection, schedule: Q01DX009 (ip), vehicle: water) is 102 % of control and 200 % of control. Consider `COc1cccc2c1C(=O)c1c(O)c3c(c(O)c1C2=O)C[C@@](O)(C(O)CO)C[C@@H]3OC1CC(NC(=O)C(F)(F)F)C(O)C(C)O1` (some centres undefined), for which the T/C (dose: 3.13 mg/kg/injection, schedule: Q01DX009 (ip), vehicle: other) was 123 % of control and 158 % of control.

Turning to `Nc1n[n+](-c2ccccc2)no1`, the T/C (dose: 12.5 mg/kg/injection, schedule: Q01DX009 (ip), vehicle: water) is 118 % of control and 150 % of control. With `N=C1C=CC2C(=Nc3ccccc3[N+]2=O)N1CCO` (centres undefined), where the note is “dose: 120.0 mg/kg/injection, schedule: Q01DX005 (ip), vehicle: saline with Tween-80”, the T/C was 100 % of control, 105 % of control, 163 % of control. Take `CCC1(O)CC(OC2CC(N(C)C)C(OC3CC(O)C(OC4CCC(=O)C(C)O4)C(C)O3)C(C)O2)c2c(cc3c(c2O)C(=O)c2c(O)ccc(O)c2C3=O)C1C(=O)OC` (centres undefined): the T/C (dose: 1.56 mg/kg/injection, schedule: Q01DX009 (ip), vehicle: saline with Tween-80) was 97 % of control and 191 % of control. In the case of `COc1cc2c(c(OC)c1OC)-c1ccc(SCc3ccccc3)c(=O)cc1[C@@H](NC(C)=O)CC2`, the T/C (dose: 6.25 mg/kg/injection, schedule: Q01DX009 (ip), vehicle: Klucel (hydroxypropylcellulose) (HPC)) was 105 % of control and 154 % of control.

Regarding `C/C=C\C1OC1(C)c1cc(=O)c2c(C)cc3c(c2o1)C(=O)c1c(O)c(C2CC(C)(N(C)C)C(OC(C)=O)C(C)O2)cc(C2CC(N(C)C)C(O)C(C)O2)c1C3=O` (centres undefined), the T/C (dose: 2.0 mg/kg/injection, schedule: Q01DX009 (ip), vehicle: saline + alcohol) was 98 % of control and 150 % of control. For the molecule `COc1cccc2c1C(=O)c1c(O)c3c(c(O)c1C2=O)C[C@@](O)(C(O)CO)C[C@@H]3OC1CC(NCc2ccccc2)C(O)C(C)O1` (some centres undefined), the T/C (dose: 6.25 mg/kg/injection, schedule: Q01DX009 (ip), vehicle: water) is 106 % of control and 192 % of control.

As to `Cc1c2ccncc2c(CN(CCCl)CCCl)c2c3ccccc3n(C)c12`, the T/C (dose: 10.0 mg/kg/injection, schedule: Q01DX005 (ip), vehicle: saline) is 123 % of control and 153 % of control. For `COc1cc2c(c3c1C(=O)c1c(cc4c(c1O)C(OC)CC(C)(O)C4)C3=O)OC1OC2(C)C(O)C(N(C)C)C1O` (centres undefined), the T/C (dose: 10.0 mg/kg/injection, schedule: Q01DX009 (ip), vehicle: other) is 116 % of control and 152 % of control.

Take `COc1cccc2c1C(=O)c1c(O)c3c(c(O)c1C2=O)C[C@@](O)(C(C)=O)C[C@@H]3OC1CC(N)C(O)C(C)O1` (some centres undefined): the T/C by setting is: (dose: 0.97 mg/kg/injection, schedule: Q04DX003 (ip), vehicle: saline) 100 % of control and 153 % of control; (dose: 1.0 mg/kg/injection, schedule: Q04DX003 (ip), vehicle: saline) 122 % of control and 156 % of control; (dose: 1.62 mg/kg/injection, schedule: Q04DX003 (ip), vehicle: saline) 110 % of control and 166 % of control. Take `CC1CC(C)CC(C)C(O)/C(C#N)=C/C=C/CC(C2CCCC2C(=O)O)OC(=O)CC(O)C(C)C1` (centres undefined): where the note is “dose: 2.0 mg/kg/injection, schedule: Q01DX009 (ip), vehicle: Klucel (hydroxypropylcellulose) (HPC)”, the T/C was 86 % of control, 169 % of control [sample A] and 86 % of control [sample B] and 86 % of control, 169 % of control [sample C]. Turning to `CCN1/C(=C/C=C/C=C\C=C\c2sc3ccc4ccccc4c3[n+]2CC)Sc2ccc3ccccc3c21`, the T/C (dose: 25.0 mg/kg/injection, schedule: Q04DX002 (ip), vehicle: saline with Tween-80) is 87 % of control and 157 % of control. As to `CNC(=O)OCc1c(COC(=O)NC)c2n(c1C)CCc1ccccc1-2`, the T/C (dose: 25.0 mg/kg/injection, schedule: Q01DX009 (ip), vehicle: distilled water + Tween-80) is 122 % of control and 169 % of control.

Consider `CCC12C=CCN3CCC4(c5cc(C6c7[nH]c8ccccc8c7CCN7CCCCC67)c(OC)cc5N(C)C4C(O)(C(=O)OC)C1OC(C)=O)C32` (centres undefined), for which the T/C (dose: 1.0 mg/kg/injection, schedule: Q01DX009 (ip), vehicle: Klucel (hydroxypropylcellulose) (HPC)) was 111 % of control and 161 % of control. `COc1cccc2c1C(=O)c1c(O)c3c(c(O)c1C2=O)C[C@@](O)(/C(CO)=N/NC(=O)c1ccc(Cl)c(Cl)c1)C[C@@H]3OC1CC(N)C(O)C(C)O1` (some centres undefined): the T/C (dose: 12.5 mg/kg/injection, schedule: Q04DX003 (ip), vehicle: water) is 119 % of control and 159 % of control.

For the origin of these results see PubChem BioAssay AID330 (DTP/NCI, 2004).
